Laboratory results published in paper PMC12136788.
The other results are listed elsewhere or left out.

B1: chr10:47502154:47503543:-|CDS|ENSG00000204172|control|control|control (ssRNA)
RNA: GGGAGUUCUACAGUCCGACGAUCGGAGCUGGAUGACUGGCCAGUUGAGCUCAGGAAGGUUAUGUCAUCUAUUGGCAAUGAGCUAGCCAACAGCAUCUGGGAAGGGAGCAGCCAGGGGCAGACAAAACCCUCAAUAAAGUCCACCAACAGAGGAUUGAGCAUCA
B2: chr12:52702891:52703434:-|CDS|ENSG00000189182|control|control|control (ssRNA)
RNA: GGGAGUUCUACAGUCCGACGAUCCUUUGGUCCUUAUUGUCCUCCUGGGGGCAUCCAAGAGGUGACCAUUAACCAGAGCCUCCUAGAGCCACUUCACCUGGAGGUGGACCCUGAAAUUCAGAGGAUCAAGACCCAGGAGCGGGACAACAGAGGAUUGAGCAUCA
B3: chr19:6380113:6380214:-|3pUTR|ENSG00000125651|msi1|FALSE|unique (ssRNA)
RNA: GGGAGUUCUACAGUCCGACGAUCACUUCAGGCUCUCAGUGACCCUUCGACAUCCUGCUUGCUCCCUGACUCCCAGGGCCCCGUAGUUAGCAAUUCUGGAAAAGUUAAGCCAUCUCCUCCUCUGGCCCUUCCUUCUGGAAUCUUCAACAGAGGAUUGAGCAUCA
B4: chr5:159158860:159158961:-|CDS|ENSG00000145860|msi1|total|mutant (ssRNA)
RNA: GGGAGUUCUACAGUCCGACGAUCCCAGGAGACCUGCCCUCUGUGCCACUGCCAUCUGAAAAACUCCUCCCAGCUUCCAGGAUCCGGAACUGAGCCAGUUCUACAGCCUCAUGCUGGAGCUGAGCAAAACGUCAUGUUUCAGGACAACAGAGGAUUGAGCAUCA
B5: chr3:89481969:89482070:+|3pUTR|ENSG00000044524|msi1|FALSE|unique (ssRNA)
RNA: GGGAGUUCUACAGUCCGACGAUCAUAUGUGUUUACUUUAAACUUGUCUUUUCAAAAUAUUACUCAGUUUAUGUUGUACAAUGUAGAUGGCCUCUUACUAAUGUAAAAUGAUUUGUAGUGGAAACAUUUAUAUUUUUAUAAUAACAACAGAGGAUUGAGCAUCA
B6: chr12:89590234:89590335:-|3pUTR|ENSG00000070961|msi1|total|mutant (ssRNA)
RNA: GGGAGUUCUACAGUCCGACGAUCUUUGCCUACAAUUUACCUUGUUAAAUAUUGCCGAUAAAUUGCUAAUACUAACCGCCAAACCGAUAACACUAAUGCUUUGUUUAAAAAAACGAAAAAAACAAAACAAAACAAAAAAACAUGCAACAGAGGAUUGAGCAUCA
B7: chr11:7467339:7467451:+|3pUTR|ENSG00000170743|unk|total|mutant (ssRNA)
RNA: GGGAGUUCUACAGUCCGACGAUCCCAAGAGAAUACCAAGACAAGCAGGCUGUUCCCUGGAAAAAAUCUAAUGCAAGGAGGGCCCGUUCACAGCAAAUUCACUGCCUCCUCCCAUGCACGUGGCCGAGAGUACCAGUAUCAACACAACAGAGGAUUGAGCAUCA
B8: chr1:154207159:154207278:-|3pUTR|ENSG00000143612|msi1_unk|total|mutant (ssRNA)
RNA: GGGAGUUCUACAGUCCGACGAUCUUCCCCAACCCUUCCUUAUGAGCAUUUUCCGAACAUUGGCUAAGACUAUUUUCCCCCAGCCGCGCUUUUUUCUGGAUUUGCAUUCAGGUGUUAUUCUUAAUGUUUCUGUCAAAGCUUCUUCAACAGAGGAUUGAGCAUCA
B9: chrX:30854639:30854752:-|CDS|ENSG00000157625|unk|total|mutant (ssRNA)
RNA: GGGAGUUCUACAGUCCGACGAUCUUCAGCUCUCCACAGCAUCAAGUGCAACCUUCCCAGUUGGGCCACAUCUUUAUGCCACCCCGUCCUUCAACUACUCCACCCCAUCCAUAUCAACAAGGACCUCCCCGCUAUCAGAAACAGCAACAGAGGAUUGAGCAUCA
B10: ENSG00000139116:stop:overlap|stop_codon|ENSG00000139116|stop_codon|NA|stop_codon (ssRNA)
RNA: GGGAGUUCUACAGUCCGACGAUCAUGCUUUACUAGGCCAUGCUUUACAAGAUCUAGAUAGCGUACCAUUAGGUAAGUAUGUUUAGCUUUCUGUGUAUCCUACAGCUGCAUGAAUUACUAAUUGUUCAUGUACACUAAUUGUGGCAACAGAGGAUUGAGCAUCA
B11: chr1:193013303:193013404:-|3pUTR|ENSG00000116750|unk|total|mutant (ssRNA)
RNA: GGGAGUUCUACAGUCCGACGAUCAAACCACUCCCGCUAUUUGAAGAGGAAUGCAGAUUUAUAUUGGGAGUUUUGAAACUACACCGUUUCUUACAAAAUCAUUGGAAGGUUUGGAGGAGCGGUUUCAAGCUUAAGUCUCCAGAGCAACAGAGGAUUGAGCAUCA
B12: chr4:99420532:99420793:-|CDS|ENSG00000196344|control|control|control (ssRNA)
RNA: GGGAGUUCUACAGUCCGACGAUCUGCAUCUAGGAUCAUUGGGAUUGACCUCAACAAAGACAAAUUUGAGAAGGCCAUGGCUGUAGGUGCCACUGAGUGUAUCAGUCCCAAGGACUCUACCAAACCCAUCAGUGAGGUGCUGUCCAACAGAGGAUUGAGCAUCA
B13: chr11:102396659:102396760:-|3pUTR|ENSG00000152558|msi1_unk|total|mutant (ssRNA)
RNA: GGGAGUUCUACAGUCCGACGAUCCUUUUUCUCUGUAUGUAAGCCGUAUAAUUUGUUACUUUCAAAUACCCGUACUUUGAAUGCCGGUUUUUUUGUUGUUGUUAUCUAUAAAAAUUGAGGGAAAUGGUUAUGCAAAAAAAUAUUCAACAGAGGAUUGAGCAUCA
B14: chr17:63423787:63423888:+|3pUTR|ENSG00000170921|msi1|FALSE|bound_elsewhere (ssRNA)
RNA: GGGAGUUCUACAGUCCGACGAUCCUAACUCAAGCCCCAGCCUCUUUCCACACUCCCUGAUACCUAAGGACUGCUUUCUCAGCUAGACCAGGGUGGGCAUCAGCGACGCCUUCUCAGCUAGACCAGGGUAGGCAUCAGCGUCCUCAACAGAGGAUUGAGCAUCA

molecular target: MSI1 full-length (mouse, UniProt Q61474 1-362); test: nsRBNS (natural sequence RNA bind-n-seq); RBNS binding buffer (assumed for nsRBNS): 25 mM Tris pH 7.5, 150 mM KCl, 3 mM MgCl2, 0.01% Triton X-100, 500 ug/ml BSA, 20 U/ml SUPERase-In, 4 C; UNK is unkempt and MSI1 is Musashi-1; names of the RNAs are library labels; protein concentration not given here; high values mean tight binding
Sequence of UniProt Q61474 (Q61474 whole entry): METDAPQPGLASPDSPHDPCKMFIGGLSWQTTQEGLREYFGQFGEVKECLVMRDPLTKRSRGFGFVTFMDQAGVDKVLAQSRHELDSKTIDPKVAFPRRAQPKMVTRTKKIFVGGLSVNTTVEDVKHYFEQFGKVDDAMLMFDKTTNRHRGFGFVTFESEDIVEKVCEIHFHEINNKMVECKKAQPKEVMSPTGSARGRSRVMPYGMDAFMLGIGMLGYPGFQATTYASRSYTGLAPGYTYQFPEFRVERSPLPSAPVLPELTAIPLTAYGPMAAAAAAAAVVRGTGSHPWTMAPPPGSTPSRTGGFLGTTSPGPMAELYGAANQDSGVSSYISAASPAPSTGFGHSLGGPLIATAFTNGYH

**Q.** How did the binding signal turn out when B1 was run?
**A.** 0.422 enrichment R

**Q.** Which binding signal does the source give for B2 here?
**A.** 0.357 enrichment R

**Q.** For B3, which binding signal is on record?
**A.** 1.14 enrichment R

**Q.** How did the binding signal turn out when B4 was run?
**A.** 0.437 enrichment R

**Q.** For B5, which binding signal is on record?
**A.** 3.27 enrichment R

**Q.** B6 was tested. Which binding signal did it give?
**A.** 0.964 enrichment R

**Q.** For B7, which binding signal is on record?
**A.** 0.435 enrichment R

**Q.** Which binding signal does the source give for B8 here?
**A.** 0.537 enrichment R

**Q.** How did the binding signal turn out when B9 was run?
**A.** 0.986 enrichment R

**Q.** How did the binding signal turn out when B10 was run?
**A.** 0.422 enrichment R

**Q.** Which binding signal does the source give for B11 here?
**A.** 0.475 enrichment R

**Q.** With B12 as the binder, how does the binding signal read?
**A.** 0.349 enrichment R

**Q.** Which binding signal does the source give for B13 here?
**A.** 1.67 enrichment R

**Q.** B14 was tested. Which binding signal did it give?
**A.** 0.822 enrichment R
